# Data from a compilation of properties of binary mixtures (doi:10.1021/je034204h).
# The densities may have been worked out from excess volumes.
# Test: xn = mol fraction of the nth substance listed
# Conditions: 100 kPa
compound,measurement,setting,value
CC1COC(=O)O1 (stereo unspecified) + C1COCCO1,mass density,"303.15 K, x1 = 0.1007",1041.4 kg/m3
same,mass density,"303.15 K, x1 = 0.2012",1059.2 kg/m3
same,mass density,"303.15 K, x1 = 0.4017",1094.6 kg/m3
same,mass density,"303.15 K, x1 = 0.5017",1112 kg/m3
same,mass density,"303.15 K, x1 = 0.6015",1129 kg/m3
same,mass density,"303.15 K, x1 = 0.7018",1145.7 kg/m3
same,mass density,"303.15 K, x1 = 0.8014",1162.1 kg/m3
same,mass density,"303.15 K, x1 = 0.9008",1178.4 kg/m3
same,mass density,"303.15 K, x1 = 1",1194.5 kg/m3
C1COCCO1 + CC1COC(=O)O1,mass density,"303.15 K, x2 = 0",1023.3 kg/m3
CC(C)=O + CC1COC(=O)O1,mass density,"303.15 K, x2 = 0",782.4 kg/m3
Cc1ccccc1 + CC1COC(=O)O1,mass density,"303.15 K, x2 = 0",860.4 kg/m3
Cc1ccccc1C + CC1COC(=O)O1,mass density,"303.15 K, x2 = 0.1383",895.4 kg/m3
same,mass density,"303.15 K, x2 = 0.2653",930.2 kg/m3
same,mass density,"303.15 K, x2 = 0.3824",964.7 kg/m3
same,mass density,"303.15 K, x2 = 0.4906",998.9 kg/m3
same,mass density,"303.15 K, x2 = 0.5909",1032.8 kg/m3
same,mass density,"303.15 K, x2 = 0.6842",1066.3 kg/m3
same,mass density,"303.15 K, x2 = 0.7712",1099.4 kg/m3
same,mass density,"303.15 K, x2 = 0.9286",1163.7 kg/m3
ClC(Cl)Cl + CC1COC(=O)O1,mass density,"298.15 K, x2 = 0",1460.9 kg/m3
same,mass density,"298.15 K, x2 = 0.0961",1435.5 kg/m3
same,mass density,"298.15 K, x2 = 0.1929",1410.5 kg/m3
same,mass density,"298.15 K, x2 = 0.2906",1385.2 kg/m3
same,mass density,"298.15 K, x2 = 0.3894",1359.6 kg/m3
same,mass density,"298.15 K, x2 = 0.5894",1306.5 kg/m3
same,mass density,"298.15 K, x2 = 0.6906",1278.4 kg/m3
same,mass density,"298.15 K, x2 = 0.7925",1250.4 kg/m3
same,mass density,"298.15 K, x2 = 0.8962",1222.2 kg/m3
c1ccccc1 + CC1COC(=O)O1,mass density,"303.15 K, x2 = 0",865.9 kg/m3
CC1COC(=O)O1 (stereo unspecified) + CC(C)=O,mass density,"303.15 K, x1 = 0.088",825.4 kg/m3
same,mass density,"303.15 K, x1 = 0.1784",869 kg/m3
same,mass density,"303.15 K, x1 = 0.2713",912.4 kg/m3
same,mass density,"303.15 K, x1 = 0.3668",955.2 kg/m3
same,mass density,"303.15 K, x1 = 0.4647",997.4 kg/m3
same,mass density,"303.15 K, x1 = 0.5657",1038.1 kg/m3
same,mass density,"303.15 K, x1 = 0.6697",1077.3 kg/m3
same,mass density,"303.15 K, x1 = 0.7768",1116.5 kg/m3
same,mass density,"303.15 K, x1 = 0.8864",1155.5 kg/m3
same,mass density,"303.15 K, x1 = 1",1194.5 kg/m3
CC1COC(=O)O1 (stereo unspecified) + Cc1ccccc1,mass density,"303.15 K, x1 = 0.2385",928.2 kg/m3
same,mass density,"303.15 K, x1 = 0.3493",962.1 kg/m3
same,mass density,"303.15 K, x1 = 0.4553",996 kg/m3
same,mass density,"303.15 K, x1 = 0.5561",1029.5 kg/m3
same,mass density,"303.15 K, x1 = 0.8335",1128.5 kg/m3
same,mass density,"303.15 K, x1 = 0.9188",1161.6 kg/m3
same,mass density,"303.15 K, x1 = 1",1194.5 kg/m3
CC1COC(=O)O1 (stereo unspecified) + Cc1ccccc1C,mass density,"303.15 K, x1 = 1",1194.5 kg/m3
CC1COC(=O)O1 (stereo unspecified) + ClC(Cl)Cl,mass density,"298.15 K, x1 = 1",1194.5 kg/m3
CC1COC(=O)O1 (stereo unspecified) + c1ccccc1,mass density,"303.15 K, x1 = 0.2087",935.9 kg/m3
same,mass density,"303.15 K, x1 = 0.4131",1004.4 kg/m3
same,mass density,"303.15 K, x1 = 0.5136",1037.7 kg/m3
same,mass density,"303.15 K, x1 = 0.6131",1070.1 kg/m3
same,mass density,"303.15 K, x1 = 0.7109",1101.8 kg/m3
same,mass density,"303.15 K, x1 = 0.8083",1133 kg/m3
same,mass density,"303.15 K, x1 = 1",1194.5 kg/m3
